Among all 360,000 compounds or so, about 16,000 (4.4%) were called active. Inconclusive results, whose numbers are uncertain, are shown with a selection of clear calls. The call rests on the fitted dose curve; in most records, active means well fitted inhibition curve with a large enough effect; inconclusive means small, poorly fitted or top-dose-only effect; inactive means no such curve, though single readings can be large or run the other way. A potency beside an inconclusive call is a rough fit, not a confirmed value.
These compounds were tested against Bromodomain adjacent to zinc finger domain protein 2B (Homo sapiens) (UniProt Q9UIF8) (assay: qHTS Assay for Inhibitors of BAZ2B). Conditions: AlphaScreen BAZ2B-H3K14Ac peptide displacement; activity change, negative = inhibition: at 114 µM (top of the series).
In short: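 In this displacement format the biotinylated H3(5-23) peptide acetylated at Lys14 serves as ligand at 50 nM, with BAZ2B at 50 nM in PBS pH 7.4 containing 0.01% Tween-20. Donor and acceptor beads are 10 ug/mL final.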
Further: nearly all actives have a fitted effect of over 60% in size.
On the % scale 0 is the no-effect control and ±100 the full control effect; potency means the concentration at half of the fitted maximal effect; tags describe the fitted curve by direction and shape.

UniProt Q9UIF8, sequence (Q9UIF8 whole entry, looked up, the tested form may be a part): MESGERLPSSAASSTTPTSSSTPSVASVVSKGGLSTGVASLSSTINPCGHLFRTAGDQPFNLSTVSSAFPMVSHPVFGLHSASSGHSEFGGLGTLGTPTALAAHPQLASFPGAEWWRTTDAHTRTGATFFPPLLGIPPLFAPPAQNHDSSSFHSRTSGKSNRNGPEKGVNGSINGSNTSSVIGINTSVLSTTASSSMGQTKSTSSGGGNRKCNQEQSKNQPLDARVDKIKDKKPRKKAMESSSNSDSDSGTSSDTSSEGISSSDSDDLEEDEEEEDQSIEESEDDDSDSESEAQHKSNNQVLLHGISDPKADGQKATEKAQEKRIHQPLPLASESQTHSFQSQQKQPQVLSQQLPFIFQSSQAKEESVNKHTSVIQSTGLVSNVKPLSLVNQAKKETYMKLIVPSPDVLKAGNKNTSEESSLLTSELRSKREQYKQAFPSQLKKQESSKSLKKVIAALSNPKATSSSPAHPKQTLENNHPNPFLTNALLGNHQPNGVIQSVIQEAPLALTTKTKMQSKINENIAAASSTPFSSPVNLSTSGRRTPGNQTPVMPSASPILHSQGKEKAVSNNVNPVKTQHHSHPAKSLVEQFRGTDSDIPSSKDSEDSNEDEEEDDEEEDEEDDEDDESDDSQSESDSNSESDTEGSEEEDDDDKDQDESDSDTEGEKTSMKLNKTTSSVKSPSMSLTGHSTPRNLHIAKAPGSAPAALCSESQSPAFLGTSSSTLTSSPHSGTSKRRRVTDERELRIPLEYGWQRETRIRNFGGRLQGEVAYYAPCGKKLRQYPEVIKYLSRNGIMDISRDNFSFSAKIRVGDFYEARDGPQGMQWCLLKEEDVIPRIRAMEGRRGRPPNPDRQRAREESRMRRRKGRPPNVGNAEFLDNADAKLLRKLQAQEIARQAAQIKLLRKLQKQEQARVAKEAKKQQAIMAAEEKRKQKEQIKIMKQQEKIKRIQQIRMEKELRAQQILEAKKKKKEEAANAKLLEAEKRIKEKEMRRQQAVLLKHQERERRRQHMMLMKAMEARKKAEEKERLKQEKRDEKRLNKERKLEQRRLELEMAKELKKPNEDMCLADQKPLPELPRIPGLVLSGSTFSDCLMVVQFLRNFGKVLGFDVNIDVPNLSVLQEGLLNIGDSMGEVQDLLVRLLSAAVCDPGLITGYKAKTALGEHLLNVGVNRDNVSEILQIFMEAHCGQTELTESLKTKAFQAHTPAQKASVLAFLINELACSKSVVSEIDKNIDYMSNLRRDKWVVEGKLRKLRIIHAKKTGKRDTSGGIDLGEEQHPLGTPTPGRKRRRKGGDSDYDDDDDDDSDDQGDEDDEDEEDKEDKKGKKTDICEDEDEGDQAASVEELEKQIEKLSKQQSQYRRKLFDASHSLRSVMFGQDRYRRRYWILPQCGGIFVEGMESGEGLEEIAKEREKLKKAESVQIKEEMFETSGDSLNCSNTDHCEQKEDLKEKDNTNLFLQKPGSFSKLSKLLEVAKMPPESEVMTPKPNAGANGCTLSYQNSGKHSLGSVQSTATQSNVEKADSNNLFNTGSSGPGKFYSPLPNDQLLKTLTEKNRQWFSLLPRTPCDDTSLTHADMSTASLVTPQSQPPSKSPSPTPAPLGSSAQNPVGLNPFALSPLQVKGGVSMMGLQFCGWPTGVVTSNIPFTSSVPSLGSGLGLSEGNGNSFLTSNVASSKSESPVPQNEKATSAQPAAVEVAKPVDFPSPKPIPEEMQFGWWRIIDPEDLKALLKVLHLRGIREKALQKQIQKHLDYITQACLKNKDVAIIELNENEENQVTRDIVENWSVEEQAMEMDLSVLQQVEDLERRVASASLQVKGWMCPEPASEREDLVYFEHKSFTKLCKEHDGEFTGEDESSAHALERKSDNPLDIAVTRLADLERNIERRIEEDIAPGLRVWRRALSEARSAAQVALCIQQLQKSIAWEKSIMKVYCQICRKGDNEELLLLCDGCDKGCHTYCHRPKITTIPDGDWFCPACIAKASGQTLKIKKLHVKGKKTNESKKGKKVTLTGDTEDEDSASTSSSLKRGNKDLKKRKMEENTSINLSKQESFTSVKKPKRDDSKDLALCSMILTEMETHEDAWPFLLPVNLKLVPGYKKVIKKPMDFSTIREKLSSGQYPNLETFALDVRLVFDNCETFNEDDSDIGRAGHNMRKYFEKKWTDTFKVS

| SMILES | Potency | activity change, negative = inhibition |
| --- | --- | --- |
| Cc1cnc(NC(=O)CC(C)c2ccccc2)s1 (configuration not stated) | inactive |  |
| Cc1ccc(C(=O)NCCCc2ccccc2)c(C)c1 | inactive |  |
| CN1CCN(C(=O)CCN2C(=O)/C(=C\c3ccc(Cl)cc3Cl)SC2=S)CC1 | inconclusive: 11.2 µM [inhibitor, full curve] |  |
| C/C(=N\NC(=O)Cc1cccn1C)c1ccc([N+](=O)[O-])cc1 | inconclusive: 39.8 µM [inhibitor, partial curve] |  |
| COc1ccc(N2CCN(CC(=O)Nc3sccc3C#N)CC2)cc1 | inconclusive: 89.1 µM [inhibitor, single point] |  |
| CCOC(=O)c1c(C)[nH]c(C)c1S(=O)(=O)N1CCCC(C(=O)NCc2ccc(Cl)cc2)C1 (configuration not stated) | inactive |  |
| COc1ccc(CCNCC(O)Cn2c3ccccc3c3ccccc32)cc1OC (configuration not stated) | inconclusive: 56.2 µM [inhibitor, partial curve] |  |
| Cc1ccccc1S(=O)(=O)NC1OC(=O)C(Cl)=C1Cl (configuration not stated) | inconclusive: 100 µM [inhibitor, single point] |  |
| COc1ccccc1Nc1nc(NCCCN(C)C)nc(N)c1[N+](=O)[O-] | inconclusive: 44.7 µM [inhibitor, partial curve] |  |
| CCOc1ccc(-n2cc(-c3ccccc3)c3c(N4CCN(c5ccccc5OC)CC4)ncnc32)cc1 | inconclusive: 20 µM [inhibitor, full curve] |  |
| Cc1ccccc1-n1c(SCC(=O)c2c(N)n(C)c(=O)n(C)c2=O)nnc1-c1cccnc1 | inconclusive: 89.1 µM [inhibitor, single point] |  |
| COC(=O)c1ccccc1NC(=O)CNC(=O)c1ccc(OC)cc1 | inactive |  |
| Oc1c(C=NCc2ccc(F)cc2)[nH]c2ccc(Br)c(Cl)c12 | inconclusive: 79.4 µM [inhibitor, single point] |  |
| CN(Cc1ccc(Cl)cc1)C(=O)c1ccc(S(=O)(=O)NCc2ccco2)cc1 | inconclusive: 89.1 µM [inhibitor, single point] |  |
| CN(CC(=O)Nc1ccccc1C(F)(F)F)C(=O)CSCc1ccc(Cl)c(Cl)c1 | inactive |  |
| N#Cc1ccc(C(=O)N2CCN(c3ncccn3)CC2)cc1 | inactive |  |
| COc1ccc(CC(=O)OC(C)C(=O)NC2CCCCC2C)cc1 (configuration not stated) | inactive |  |
| C/C=C\C=C/C(=O)Nc1cccc(C2=NOC3(C2)C[C@@H](C(N)=O)N(C(=O)c2ccc(Cl)cc2)C3)c1 (some centres not stated) | inconclusive: 89.1 µM [inhibitor, single point] |  |
| O=C1CN(Cc2ccccc2)C(=NCc2ccco2)S1 | inconclusive: 89.1 µM [inhibitor, single point] |  |
| Cc1ccc(S(=O)(=O)N(C)c2ccc(OCC(=O)NCc3ccco3)cc2)cc1 | inconclusive: 100 µM [inhibitor, single point] |  |
| Cc1ccc(CN(Cc2ccco2)C(=S)NCC(=O)O)cc1 | inactive |  |
| COCCCN1C(=O)c2ccc(C(=O)OCC(=O)N(CCC#N)c3cc(C)cc(C)c3)cc2C1=O | inactive |  |
| O=C(O)C1Nc2c(cccc2C(F)(F)F)C2C=CCC12 (configuration not stated) | active: 39.8 µM |  |
| O=[N+]([O-])c1ccc(Oc2cc(NC3CCCCCCC3)c([N+](=O)[O-])cc2[N+](=O)[O-])cc1 | inconclusive: 6.31 µM [inhibitor, partial curve] |  |
| Cc1cc(C)cc(C(=O)Nc2cccnc2)c1 | inactive |  |
| Cc1ccc(C2=NC(=O)/C(=C/c3cc(O)c(O)c(Br)c3)S2)cc1 | active: 3.55 µM |  |

| SMILES | Potency | activity change, negative = inhibition |
| --- | --- | --- |
| Cc1ccc(CNC(=O)c2ccc(Cn3c(=O)c4ccccc4n(CC(=O)Nc4ccc(C)cc4)c3=O)cc2)cc1 | inconclusive: 89.1 µM [inhibitor, single point] |  |
| CC(=O)c1cccc(N=Cc2c(O)ccc3ccccc23)c1 | inconclusive: 79.4 µM [inhibitor, single point] |  |
| CCOc1[nH]n(-c2ccccc2)c(=O)c1C=Nc1ccccc1 | inconclusive: 50.1 µM [inhibitor, partial curve] |  |
| O=C1c2ccccc2C(=O)N1CSc1nnc(Nc2ccccc2F)s1 | inactive |  |
| CCN(CC)c1ccc(CNc2ccc3c(c2)ncn3C(C)(C)C)cc1 | active: 11.2 µM |  |
| C[N+]1(CCNC(=O)/C=N/O)CCCCC1 | active: 79.4 µM |  |
| Fc1ccc(NC(=S)NCc2ccccn2)cc1 | inactive |  |
| CC(C)C1Oc2ccccc2N(CC(=O)N(C)C2CCCCC2)C1=O (configuration not stated) | inactive |  |
| COc1cc(OC)c(NC(=O)CCc2c(C)nc3ncnn3c2C)cc1Cl | inactive |  |
| COc1ccc(-c2nc(CSCC(=O)NCCc3ccccc3)c(C)o2)cc1 | inconclusive: 89.1 µM [inhibitor, single point] |  |
| Oc1ccc(C2=NNC(=NCc3ccc4c(c3)OCO4)SC2)c(O)c1 | inconclusive: 35.5 µM [inhibitor, full curve] |  |
| Cc1cc(C(=O)Nc2ncn[nH]2)ccc1[N+](=O)[O-] | active: 50.1 µM |  |
| CC(C)CC(=O)Nc1ccc(Oc2ccc(NC(=O)CC(C)C)cc2)cc1 | inactive |  |
| Clc1cccc(CSc2nnc([C@@H]3CCCN3)o2)c1 | active: 79.4 µM |  |
| O=C1c2ccccc2C(=O)C1C1=Nc2ccccc2NC(c2ccccc2)C1 (configuration not stated) | inconclusive: 4.47 µM [inhibitor, single point] |  |
| CC1=C(C)CC(C(=O)NC2CCCC2)C(C(=O)O)C1 (configuration not stated) | inactive |  |
| CCNC(=S)NCc1ccc2[nH]c(C)cc2c1 | inconclusive: 89.1 µM [inhibitor, single point] |  |
| CCN(c1ccc(NC(=O)COC(=O)CCc2nc3ccccc3n2-c2ccccc2)cc1)C(C)C | active: 25.1 µM |  |
| O=C(COC(=O)CCCOc1ccc(Cl)cc1Cl)NCc1ccccc1 | inactive |  |
| CCCCOC(=O)C1=C(C)Nc2ncnn2C1c1ccc(OCC)c(OC)c1 (configuration not stated) | inconclusive: 79.4 µM [inhibitor, single point] |  |
| CC(C)Nc1nc(NC(C)C)nc(C(N)=O)n1 | active: 50.1 µM |  |
| O=C(CNc1ccc(F)cc1)c1ccccc1 | inconclusive: 79.4 µM [inhibitor, single point] |  |
| COc1ccc(C)cc1NS(=O)(=O)c1c(C(=O)N2CCCCCC2)c(C)n(C)c1C | inconclusive: 89.1 µM [inhibitor, single point] |  |
| CC(C)c1ccc2nc(N)sc2c1 | inconclusive: 89.1 µM [inhibitor, single point] |  |
| CCn1c(/C=C/c2cc[n+](C)cc2)nc2ccccc21 | inconclusive: 89.1 µM [inhibitor, single point] |  |
| Cc1c(C(=O)O)oc2ccc(S(=O)(=O)N3CCCC3)cc12 | inconclusive: 89.1 µM [inhibitor, single point] |  |

| SMILES | Potency | activity change, negative = inhibition |
| --- | --- | --- |
| O=C1[C@@H]2Cc3c([nH]c4ccccc34)C(c3ccccc3)N2C(=O)CN1C1CCN(Cc2ccccc2)CC1 (some centres not stated) | active: 31.6 µM |  |
| O=C(CCn1c(=O)c2cccn2c2cccnc21)N1CCN(c2ccccc2F)CC1 | inconclusive: 89.1 µM [inhibitor, partial curve] |  |
| CC1CCCN(C(=O)CSc2cnc3ccccc3n2)C1 (configuration not stated) | inactive |  |
| COc1cc(-n2ccnc2SC)c(Cl)cc1Cl | active: 12.6 µM |  |
| CCc1nnc(N/N=C/c2ccccc2Cl)n1N | inconclusive: 89.1 µM [inhibitor, single point] |  |
| Nc1ccc(-c2nc3ccc(N)cc3[nH]2)cc1 | inconclusive: 79.4 µM [inhibitor, partial curve] |  |
| O=C(CCc1ccccc1)Nc1nc2nc(-c3ccccc3)cc(=O)n2[nH]1 | inactive |  |
| CCOC(=O)N1CCN(C(=O)c2ccc([N+](=O)[O-])cc2Cl)CC1 |  | inactive: -3.45% [at 0.457 µM] |
| N=C1/C(=C\c2coc3ccccc3c2=O)C(=O)N=C2SC=CN12 | inconclusive: 89.1 µM [inhibitor, single point] |  |
| CCCN(CCC)C(=S)NC(=O)c1ccc(-c2ccccc2)cc1 | inconclusive: 8.91 µM [inhibitor, full curve] |  |
| CCC(C)NC(=O)CCc1nc2ccccc2n1-c1ccccc1 (configuration not stated) | inactive |  |
| O=C(CSc1nnc(-c2cccc(F)c2)o1)NC1CCCC1 | inactive |  |
| COc1cc(Cc2nccc3cc(OC)c(OC)cc23)c(S(=O)(=O)O)cc1OC | inactive |  |
| Cc1ccc(CNC(=O)CCn2cnc3ccccc3c2=O)cc1 | inactive |  |
| CCc1ccc(OCCCCCn2ccnc2)cc1 | active: 50.1 µM |  |
| Cc1ccc(OCC(=O)N/N=C\c2cccn2C)c([N+](=O)[O-])c1 | inconclusive: 50.1 µM [inhibitor, partial curve] |  |
| Cc1ccccc1/C(N)=N/OC(=O)N1c2ccccc2Sc2ccccc21 | inconclusive: 44.7 µM [inhibitor, partial curve] |  |
| COc1ccccc1CNC(=O)c1ccc(-c2ccccc2Cl)o1 | inconclusive: 79.4 µM [inhibitor, partial curve] |  |
| O=C(Nc1ccc(Cl)cc1)N1CCCN(c2ccc(C(F)(F)F)cc2[N+](=O)[O-])CC1 | inconclusive: 35.5 µM [inhibitor, partial curve] |  |
| COc1cc(C(c2nnnn2C2CCCC2)N2CCN(C)CC2)cc(OC)c1OC (configuration not stated) | inconclusive: 89.1 µM [inhibitor, single point] |  |
| CCOC(=O)CNC(=S)N(Cc1ccco1)Cc1ccccc1Cl | inactive |  |
| COc1ccc(C2=C(N3CCN(c4cccc(C)c4)C(C)C3)c3ccccc3C2=O)cc1 (configuration not stated) | active: 4.47 µM |  |
| COc1ccc(CCNCC(O)COc2cccc(C(C)=O)c2)cc1OC (configuration not stated) | active: 70.8 µM |  |
| COc1ccccc1C(=O)Nc1ccc2c(c1)n(C)c(=O)n2C | inconclusive: 50.1 µM [inhibitor, partial curve] |  |
| CC(C)(C)C(=O)/C=C(N)/C=C/c1ccccc1 | inconclusive: 50.1 µM [inhibitor, partial curve] |  |

Reference: PubChem BioAssay AID504333 (National Center for Advancing Translational Sciences (NCATS), 2011)
